The record followed here is the supplement of paper PMC11876631.

The data set concerns the target Escherichia coli (laboratory strain). The data set can be described thus: barcode share on antibiotic plates over drug-free plates; higher = less susceptible. Particulars: antibiotic: gentamicin; 2× MIC (MIC 0.45 µg/mL). As to the method: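 A pool of E. coli strains, each edited to carry one amino-acid change in an essential protein, was grown for 48 h on minimal glucose agar with or without antibiotic; strain barcodes were sequenced; mean of two replicates.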

Substitutions are numbered along the chain they refer to. In names and notes the source's numbering stands. ± gives the standard deviation of the averaged measurements. Laboratory Escherichia coli strains with one amino-acid change in an essential protein, pooled on minimal glucose agar with carbenicillin or gentamicin at twice the control MIC (plus kanamycin and chloramphenicol for the plasmids), 48 h. Fold change of barcode share against drug-free plates; higher = less susceptible. Active = above 20 in both replicates (the paper's putatively resistant). '<' = one read or none on drug, '>' = one read or none on a drug-free plate. Shares are relative, so most strains fall below 1 when a few take over. Listed are strains with at least 15 reads on both drug-free plates, and hits; most hits rest on fewer reference reads. Replicate rank correlation about 0.5. Edits are read from barcodes.

B1: cysB F316A (protein)
chain: MKLQQLRYIVEVVNHNLNVSSTAEGLYTSQPGISKQVRMLEDELGIQIFSRSGKHLTQVTPAGQEIIRIAREVLSKVDAIKSVAGEHTWPDKGSLYIATTHTQARYALPNVIKGFIERYPRVSLHMHQGSPTQIADAVSKGNADFAIATEALHLYEDLVMLPCYHWNRAIVVTPDHPLAGKKAITIEELAQYPLVTYTFGFTGRSELDTAFNRAGLTPRIVFTATDADVIKTYVRLGLGVGVIASMAVDPVADPDLVRVDAHDIFSHSTTKIGFRRSTFLRSYMYDFIQRFAPHLTRDVVDAAVALRSNEEIEVMAKDIKLPEK
For the protein B1, the “fold change of barcode share” value is less than 0.0172.

B2: cysI L531P (protein)
chain: MSEKHPGPLVVEGKLTDAERMKHESNYLRGTIAEDLNDGLTGGFKGDNFLLIRFHGMYQQDDRDIRAERAEQKLEPRHAMLLRCRLPGGVITTKQWQAIDKFAGENTIYGSIRLTNRQTFQFHGILKKNVKPVHQMLHSVGLDALATANDMNRNVLCTSNPYESQLHAEAYEWAKKISEHLLPRTRAYAEIWLDQEKVATTDEEPILGQTYLPRKFKTTVVIPPQNDIDLHANDMNFVAIAENGKLVGFNLLVGGGLSIEHGNKKTYARTASEFGYLPLEHTLAVAEAVVTTQRDWGNRTDRKNAKTKYTLERVGVETFKAEVERRAGIKFEPIRPYEFTGRGDRIGWVKGIDDNWHLTLFIENGRILDYPARPLKTGLLEIAKIHKGDFRITANQNLIIAGVPESEKAKIEKIAKESGLMNAVTPQRENSMACVSFPTCPLAMAEAERFLPSFIDNIDNLMAKHGVSDEHIVMRVTGCPNGCGRAMLAEVGLVGKAPGRYNLHLGGNRIGTRIPRMYKENITEPEILASPDELIGRWAKEREAGEGFGDFTVRAGIIRPVLDPARDLWD
B2: the “fold change of barcode share” value was less than 0.018.

B3: cysS L387A (protein)
chain: MLKIFNTLTRQKEEFKPIHAGEVGMYVCGITVYDLCHIGHGRTFVAFDVVARYLRFLGYKLKYVRNITDIDDKIIKRANENGESFVAMVDRMIAEMHKDFDALNILRPDMEPRATHHIAEIIELTEQLIAKGHAYVADNGDVMFDVPTDPTYGVLSRQDLDQLQAGARVDVVDDKRNPMDFVLWKMSKEGEPSWPSPWGAGRPGWHIECSAMNCKQLGNHFDIHGGGSDLMFPHHENEIAQSTCAHDGQYVNYWMHSGMVMVDREKMSKSLGNFFTVRDVLKYYDAETVRYFLMSGHYRSQLNYSEENLKQARAALERLYTALRGTDKTVAPAGGEAFEARFIEAMDDDFNTPEAYSVLFDMAREVNRLKAEDMAAANAMASHLRKASAVLGLLEQEPEAFLQSGAQADDSEVAEIEALIQQRLDARKAKDWAAADAARDRLNEMGIVLEDGPQGTTWRRK
On to B3, for which the “fold change of barcode share” value is less than 0.00776.

B4: cysE V88P (protein)
chain: MSCEELEIVWNNIKAEARTLADCEPMLASFYHATLLKHENLGSALSYMLANKLSSPIMPAIAIREVVEEAYAADPEMIASAACDIQAPRTRDPAVDKYSTPLLYLKGFHALQAYRIGHWLWNQGRRALAIFLQNQVSVTFQVDIHPAAKIGRGIMLDHATGIVVGETAVIENDVSILQSVTLGGTGKSGGDRHPKIREGVMIGAGAKILGNIEVGRGAKIGAGSVVLQPVPPHTTAAGVPARIVGKPDSDKPSMDMDQHFNGINHTFEYGDGI
For the protein B4, the “fold change of barcode share” value was less than 0.0118.

B5: dapA V40Q (protein)
chain: MFTGSIVAIVTPMDEKGNVCRASLKKLIDYHVASGTSAIQSVGTTGESATLNHDEHADVVMMTLDLADGRIPVIAGTGANATAEAISLTQRFNDSGIVGCLTVTPYYNRPSQEGLYQHFKAIAEHTDLPQILYNVPSRTGCDLLPETVGRLAKVKNIIGIKEATGNLTRVNQIKELVSDDFVLLSGDDASALDFMQLGGHGVISVTANVAARDMAQMCKLAAEGHFAEARVINQRLMPLHNKLFVEPNPIPVKWACKELGLVATDTLRLPMTPITDSGRETVRAALKHAGLL
For B5, the “fold change of barcode share” value turned out to be 0.0402 ± 0.042.

B6: acpS V11A (protein)
chain: MAILGLGTDIAEIARIEAVIARSGDRLARRVLSDNEWAIWKTHHQPVRFLAKRFAVKEAAAKAFGTGIRNGLAFNQFEVFNDELGKPRLRLWGEALKLAEKLGVANMHVTLADERHYACATVIIES
On to B6, for which the “fold change of barcode share” value amounted to 0.0643 ± 0.084.

B7: dapD I184W (protein)
chain: MQQLQNIIETAFERRAEITPANADTVTREAVNQVIALLDSGALRVAEKIDGQWVTHQWLKKAVLLSFRINDNQVIEGAESRYFDKVPMKFADYDEARFQKEGFRVVPPAAVRQGAFIARNTVLMPSYVNIGAYVDEGTMVDTWATVGSCAQIGKNVHLSGGVGIGGVLEPLQANPTIIEDNCFWGARSEVVEGVIVEEGSVISMGVYIGQSTRIYDRETGEIHYGRVPAGSVVVSGNLPSKDGKYSLYCAVIVKKVDAKTRGKVGINELLRTID
With B7, the “fold change of barcode share” value was less than 0.0137.

B8: cysC V29Q (protein)
chain: MALHDENVVWHSHPVTVQQRELHHGHRGQVLWFTGLSGSGKSTVAGALEEALHKLGVSTYLLDGDNVRHGLCSDLGFSDADRKENIRRVGEVANLMVEAGLVVLTAFISPHRAERQMVRERVGEGRFIEVFVDTPLAICEARDPKGLYKKARAGELRNFTGIDSVYEAPESAEIHLNGEQLVTNLVQQLLDLLRQNDIIRS
On to B8, for which the “fold change of barcode share” value was less than 0.0173.

B9: cysC F33Q (protein)
chain: B8 chain with Q29V, F33Q
Consider B9, for which the “fold change of barcode share” value amounted to 0.0467 ± 0.031.

B10: cysC V30D (protein)
chain: B8 chain with Q29V, V30D
As for B10, the “fold change of barcode share” value was 0.0301 ± 0.028.

B11: cysC V103D (protein)
chain: B8 chain with Q29V, V103D
Consider B11, for which the “fold change of barcode share” value was less than 0.016.

B12: cysC L31W (protein)
chain: B8 chain with Q29V, L31W
With B12, the “fold change of barcode share” value stood at 0.0876 ± 0.087.

B13: cysC V102Q (protein)
chain: B8 chain with Q29V, V102Q
With B13, the “fold change of barcode share” value is less than 0.0167.

B14: cysC V103A (protein)
chain: B8 chain with Q29V, V103A
Turning to B14, the “fold change of barcode share” value was less than 0.0146.

B15: cysG V408A (protein)
chain: MDHLPIFCQLRDRDCLIVGGGDVAERKARLLLDAGARLTVNALAFIPQFTAWADAGMLTLVEGPFDESLLDTCWLAIAATDDDALNQRVSEAAEARRIFCNVVDAPKAASFIMPSIIDRSPLMVAVSSGGTSPVLARLLREKLESLLPLHLGQVAKYAGQLRGRVKQQFATMGERRRFWEKLFVNDRLAQSLANNDQKAITETTEQLINEPLDHRGEVVLVGAGPGDAGLLTLKGLQQIQQADVVVYDRLVSDDIMNLVRRDADRVFVGKRAGYHCVPQEEINQILLREAQKGKRVVRLKGGDPFIFGRGGEELETLCNAGIPFSVVPGITAASGCSAYSGIPLTHRDYAQSVRLITGHLKTGGELDWENLAAEKQTLVFYMGLNQAATIQQKLIEHGMPGEMPVAIAENGTAVTQRVIDGTLTQLGELAQQMNSPSLIIIGRVVGLRDKLNWFSNH
For the protein B15, the “fold change of barcode share” value came out at 0.0129 ± 0.0097.

B16: cysD I268Q (protein)
chain: MDQIRLTHLRQLEAESIHIIREVAAEFSNPVMLYSIGKDSSVMLHLARKAFYPGTLPFPLLHVDTGWKFREMYEFRDRTAKAYGCELLVHKNPEGVAMGINPFVHGSAKHTDIMKTEGLKQALNKYGFDAAFGGARRDEEKSRAKERIYSFRDRFHRWDPKNQRPELWHNYNGQINKGESIRVFPLSNWTEQDIWQYIWLENIDIVPLYLAAERPVLERDGMLMMIDDNRIDLQPGEVIKKRMVRFRTLGCWPLTGAVESNAQTLPEQIEEMLVSTTSERQGRVIDRDQAGSMELKKRQGYF
Consider B16, for which the “fold change of barcode share” value is > 55.8 [active].

B17: cysD I269Q (protein)
chain: B16 chain with Q268I, I269Q
Take B17: the “fold change of barcode share” value amounted to 1.24 ± 1.4.
